The values that follow come from article PMC4336329 (PLoS ONE, 2015).

Hit rate of the full screen: of about 310,000 compounds, about 14,000 (4.5%) showed an effect of 50% or more. The effect is printed as a negative number. Some of the results follow.
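Further: peak tail current of the secondary pulse compared with the same well before compound.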

human ether-à-go-go-related gene (hERG) potassium channel, sequence (Q12809 whole entry, looked up): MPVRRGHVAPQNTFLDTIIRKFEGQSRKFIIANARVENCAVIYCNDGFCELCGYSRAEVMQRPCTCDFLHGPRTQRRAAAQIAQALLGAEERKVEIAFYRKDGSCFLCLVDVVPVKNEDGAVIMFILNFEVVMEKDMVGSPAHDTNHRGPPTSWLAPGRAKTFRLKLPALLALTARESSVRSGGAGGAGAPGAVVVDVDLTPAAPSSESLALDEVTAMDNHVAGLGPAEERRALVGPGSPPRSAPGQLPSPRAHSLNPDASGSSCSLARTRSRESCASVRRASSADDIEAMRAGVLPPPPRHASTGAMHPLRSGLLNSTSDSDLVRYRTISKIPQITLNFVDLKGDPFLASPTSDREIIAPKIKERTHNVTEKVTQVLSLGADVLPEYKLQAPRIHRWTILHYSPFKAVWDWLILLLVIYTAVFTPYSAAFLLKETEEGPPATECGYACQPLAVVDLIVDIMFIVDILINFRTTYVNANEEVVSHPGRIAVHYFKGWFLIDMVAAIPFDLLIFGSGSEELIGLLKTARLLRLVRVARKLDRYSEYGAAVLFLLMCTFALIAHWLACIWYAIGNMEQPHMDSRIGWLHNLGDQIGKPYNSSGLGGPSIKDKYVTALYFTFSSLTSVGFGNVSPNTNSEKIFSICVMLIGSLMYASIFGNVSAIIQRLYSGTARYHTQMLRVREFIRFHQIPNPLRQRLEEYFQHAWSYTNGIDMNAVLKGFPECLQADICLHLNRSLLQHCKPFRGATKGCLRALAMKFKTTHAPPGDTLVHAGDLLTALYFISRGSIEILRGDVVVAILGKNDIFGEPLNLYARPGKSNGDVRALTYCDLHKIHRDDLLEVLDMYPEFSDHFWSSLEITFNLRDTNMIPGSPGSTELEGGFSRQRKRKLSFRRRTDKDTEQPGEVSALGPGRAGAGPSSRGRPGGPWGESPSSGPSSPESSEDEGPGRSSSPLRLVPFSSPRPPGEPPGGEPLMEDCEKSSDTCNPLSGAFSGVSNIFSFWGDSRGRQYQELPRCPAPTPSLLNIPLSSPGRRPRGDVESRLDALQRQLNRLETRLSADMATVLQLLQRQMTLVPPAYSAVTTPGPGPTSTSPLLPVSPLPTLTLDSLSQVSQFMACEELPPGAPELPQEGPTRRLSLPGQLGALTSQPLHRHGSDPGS

The assay concerns the target human ether-à-go-go-related gene (hERG) potassium channel (human, UniProt Q12809). Nature of the assay: primary screen, population patch clamp on CHO cells stably expressing hERG.
On to `Cc1cc2c(C)nc3ccccc3c2o1`, for which the “hERG current change (%, negative = inhibition) at 10uM” value is -2.63%.

In the case of `Cc1cc(C)c(NC(=O)CN2C(=O)NC3(CCCCC3)C2=O)c(Cl)c1`, the “hERG current change (%, negative = inhibition) at 10uM” value is reported as -4.29%. `CCOc1ccccc1C1CC(c2ccccc2)Nc2nc(N)nn21.Cl` (stereo not shown): the “hERG current change (%, negative = inhibition) at 10uM” value is given as -11.9%. Next, `CC(C)(C)c1csc(NC(=O)c2ccc(Br)o2)n1`: -20.1%; `Cc1cc(OCC(=O)NCCCN2CCCC2=O)c2c(C)c(C)c(=O)oc2c1`: -13.6%. Take `COc1ccc(-c2nnn(CC(=O)N(CCCN3CCOCC3)C(C(=O)NC3CCCC3)c3ccc(C)o3)n2)cc1` (stereo not shown): the “hERG current change (%, negative = inhibition) at 10uM” value is reported as -34.3%.

`O=C(CCl)Nc1cn(-c2ccccc2)nc1-c1ccccc1`: the “hERG current change (%, negative = inhibition) at 10uM” value is -48.9%.

As for `N=C1c2ccccc2CN1NC(=O)c1ccc(Br)o1`, the “hERG current change (%, negative = inhibition) at 10uM” value is 13.8%. Regarding `CCCC1C(C#N)=C(N)Oc2c1c(=O)oc1ccccc21` (stereo not shown), the “hERG current change (%, negative = inhibition) at 10uM” value is recorded as -6.06%. For `CS(=O)(=O)Nc1cccc(C(=O)OCCCOc2ccc(F)cc2)c1`, the “hERG current change (%, negative = inhibition) at 10uM” value is -54.5%.

`CCOCC(=O)Nc1nnc(COCC)s1`: the “hERG current change (%, negative = inhibition) at 10uM” value worked out at 5.56%. For `Cc1ccccc1NC(=O)C1CCCN(S(=O)(=O)c2cccc3cccnc23)C1` (stereo not shown) the value was -0.726%; for `Brc1ccc(Oc2ncc(CN3CCN(c4ccccc4)CC3)s2)cc1`, 6.41%; for `CCc1cc2c(=O)c(-c3nc4ccccc4n3C)coc2c(CN2CCCC(C)C2)c1O` (stereo not shown), 12.4%.

With `CCCN1C/C(=C/c2ccc3c(c2)OCO3)C(=O)/C(=C/c2ccc3c(c2)OCO3)C1`, the “hERG current change (%, negative = inhibition) at 10uM” value is given as -17.7%. With `CCCn1c(SCc2ccccc2)nc2c1c(=O)[nH]c(=O)n2C`, the “hERG current change (%, negative = inhibition) at 10uM” value is -12%.

For `CCC(=O)N1CCN(c2ccc(NC(=O)c3ccc(C#N)cc3F)cc2Cl)CC1`, the “hERG current change (%, negative = inhibition) at 10uM” value was -7.73%. Turning to `COc1ccc(-c2nnc(-c3ccc(C)cc3)o2)cc1`, the “hERG current change (%, negative = inhibition) at 10uM” value came out at 8.56%. Consider `O=C(O)CCC(=O)Nc1ccc(S(=O)(=O)c2ccc(NC(=O)CCC(=O)O)cc2)cc1`, for which the “hERG current change (%, negative = inhibition) at 10uM” value turned out to be 13.2%. With `COc1ccc(C(=O)NCc2ccco2)cc1S(=O)(=O)NC1CC1`, the “hERG current change (%, negative = inhibition) at 10uM” value is -13.8%. Consider `O=C(c1cc(S(=O)(=O)N2CCOCC2)ccc1Cl)N1CCC(Cc2ccccc2)CC1`, for which the “hERG current change (%, negative = inhibition) at 10uM” value was -15.9%. For the compound `O=C(CN1CCN(c2ncc(C(F)(F)F)cc2Cl)CC1)NC(=O)NCc1ccccc1`, the “hERG current change (%, negative = inhibition) at 10uM” value came to 4.2%. In the case of `CCOc1ccc(CNC(=O)Cn2nc(C)n3nc(-c4ccccc4)cc3c2=O)cc1`, the “hERG current change (%, negative = inhibition) at 10uM” value is recorded as -9.48%. On to `COc1ccc(C(=O)N=c2sc3c(C)ccc(OC)c3n2C)cc1OC`, for which the “hERG current change (%, negative = inhibition) at 10uM” value was determined as 7.38%. With `COc1ccc(-c2oc(/N=C/N3CCOCC3)c(C#N)c2-c2ccc(OC)cc2)cc1`, the “hERG current change (%, negative = inhibition) at 10uM” value is 13.9%. Next, `CCOC(=O)c1c[nH]n2c(=O)cc(C)nc12`: 11.2%; `C[C@H](NC(=O)c1nc[nH]c1C(=O)N[C@@H](CCCCNC(=O)OC(C)(C)C)C(=O)OC(C)(C)C)C(=O)OC(C)(C)C`: -4.85%. Regarding `Cc1ccc(-c2nnc3c(C(F)(F)F)nc4ccccc4n23)cc1`, the “hERG current change (%, negative = inhibition) at 10uM” value is -2.14%. For `CCN(CC(=O)NC(C)(C)C)Cc1nc2c(Br)cc(Br)cc2c(=O)[nH]1` the value was -5.72%; for `O=C(c1ccccc1NS(=O)(=O)c1ccc(F)cc1)N1CCc2ccccc21`, 3.06%.

For `N#Cc1ccccc1COC(=O)CCC(=O)c1cccs1`, the “hERG current change (%, negative = inhibition) at 10uM” value is reported as -4.58%.

With `O=C(COC(=O)CN1C(=O)NC2(CCCC2)C1=O)Nc1ccc(C(F)(F)F)cc1[N+](=O)[O-]`, the “hERG current change (%, negative = inhibition) at 10uM” value is -0.173%. Take `Cl.OCCNCCNCc1ccc(-c2ccccc2)cc1`: the “hERG current change (%, negative = inhibition) at 10uM” value is recorded as -5.08%.

For the compound `CN(C)c1nc(C(=O)OCCO)nc(N(C)C)n1`, the “hERG current change (%, negative = inhibition) at 10uM” value is recorded as -1.98%.

As for `Cc1cc(Br)c(NC(=O)c2c(-c3c(Cl)cccc3Cl)noc2C)c(Br)c1`, the “hERG current change (%, negative = inhibition) at 10uM” value is on record as 9.94%. For `CN(C)c1ccc(N2C(=O)CC(Nc3ccc(N4CCOCC4)cc3)C2=O)cc1` (stereo not shown) the value was -4.02%. For `CCOc1ccc(N(CC(=O)Nc2cccc(C)c2)S(C)(=O)=O)cc1` the value was -0.0101%.

For the compound `COc1cc(CNC(=O)CCCCCCC(C)C)ccc1O`, the “hERG current change (%, negative = inhibition) at 10uM” value is on record as -16.3%.

For `O=c1c2ccccc2nc(N2CCCC2)n1-c1ccccc1`, the “hERG current change (%, negative = inhibition) at 10uM” value is 10.7%.

As to `CC(C)C[C@H](NC(=O)N1CCn2c1nc1ccccc12)C(=O)NCc1ccccc1`, the “hERG current change (%, negative = inhibition) at 10uM” value is -5.34%. Turning to `CCSc1nnc(NC(=O)C2CC2c2ccccc2)s1` (stereo not shown), the “hERG current change (%, negative = inhibition) at 10uM” value was 10.6%. Consider `CCCn1c(-c2cccnc2Cl)nc2cc(Cl)c(Cl)cc21`, for which the “hERG current change (%, negative = inhibition) at 10uM” value is recorded as -28.1%. As for `COc1ccc(-c2cnc3c(c2)CCC3(C#N)C#N)cc1`, the “hERG current change (%, negative = inhibition) at 10uM” value is -34.4%. As to `CCCCn1c(N)c(N(CCOC)C(=O)CCCc2cccs2)c(=O)[nH]c1=O`, the “hERG current change (%, negative = inhibition) at 10uM” value is given as -11.5%. `COc1cc(COCC(O)CN2CCOCC2)cc(OC)c1OC.Cl` (stereo not shown): the “hERG current change (%, negative = inhibition) at 10uM” value is recorded as -0.365%. `O=C1Nc2ccccc2C1Cc1ccccc1` (stereo not shown): the “hERG current change (%, negative = inhibition) at 10uM” value is -6.97%. With `COc1ccc(CN2CCN(c3ccc(F)cc3)CC2)c(OC)c1OC`, the “hERG current change (%, negative = inhibition) at 10uM” value was -70.2%. Turning to `O=C(CS(=O)(=O)Cc1ccccc1)N1CCN(c2ccccc2F)CC1`, the “hERG current change (%, negative = inhibition) at 10uM” value is -1.2%.

Take `CN(C)CCCN(C(=O)CCc1ccccc1)c1nc2ccc(Cl)cc2s1.Cl`: the “hERG current change (%, negative = inhibition) at 10uM” value is recorded as -24.4%. On to `CCCCC(O)(c1ccc(CC)cc1)C(CN1CCOCC1)c1ccccc1.Cl` (stereo not shown), for which the “hERG current change (%, negative = inhibition) at 10uM” value came out at 0.072%. For `CCC(=O)NNC(=O)CCC(=O)Nc1cccc(Cl)c1C` the value was 12.3%; for `CC(C)C(=O)Nc1ccccc1N1CCN(S(C)(=O)=O)CC1`, -4.44%; for `CCOC(=O)N1CCN(S(=O)(=O)c2ccc(F)c(C(=O)Nc3cccc(Cl)c3C)c2)CC1`, -3.81%. `CCN(CC(=O)NCc1cccs1)C(=O)c1ccc(S(=O)(=O)Nc2ccccc2C)cc1`: the “hERG current change (%, negative = inhibition) at 10uM” value is reported as -24.3%. As for `CC(=O)CCN1CCOCC1`, the “hERG current change (%, negative = inhibition) at 10uM” value is recorded as 0.857%. Take `O=C(C1CCCN(c2nnc(-n3cccc3)s2)C1)N1CCN(c2ccccc2)CC1` (stereo not shown): the “hERG current change (%, negative = inhibition) at 10uM” value is listed as -47%. Take `O=C(CCn1c(=O)sc2ccccc21)NCc1ccc2c(c1)OCO2`: the “hERG current change (%, negative = inhibition) at 10uM” value stood at 20.6%. Turning to `CC12CCC(C(=O)NC3CCCCC3)([C@H](Br)C1=O)C2(C)C` (stereo partly shown), the “hERG current change (%, negative = inhibition) at 10uM” value was 10.6%. For `Cc1ccccc1C(=O)O/N=C(\N)c1cccc([N+](=O)[O-])c1` the value was -13.2%; for `Cc1ccc(C)c(NC(=O)C2CCCN2S(=O)(=O)c2ccc3c(c2)n(C)c(=O)c(=O)n3C)c1` (stereo not shown), -26.8%; for `CCCn1nc(NS(=O)(=O)c2cccc3nonc23)c2cc3ccccc3nc21`, 4.72%. Next, `CCc1nn2c(=O)c(S(=O)(=O)Nc3cccc(F)c3)c(C)nc2s1`: 1.42%; `COc1ccc(CNC(=O)C(NS(=O)(=O)c2ccc3c(c2)CCCN3C(C)=O)C(C)C)cc1` (stereo not shown): -8.3%. On to `COc1ccccc1/C=C1\SC(=S)N(CC(=O)Nc2nnc(C)s2)C1=O`, for which the “hERG current change (%, negative = inhibition) at 10uM” value was determined as 13.3%. Next, `CN1CCN(C(=O)c2cc(Oc3c(F)c(F)c(F)c(F)c3F)cc(C(=O)N3CCN(C)CC3)c2)CC1`: 10.8%; `CCCCNC(=O)Nc1nc(SCC(=O)OCC)n[nH]1`: 4.64%. For the compound `O=C(CSc1nnc2scc(-c3ccccc3)n12)NCc1ccc2c(c1)OCO2`, the “hERG current change (%, negative = inhibition) at 10uM” value is given as -21.1%. Consider `CCc1ccc(S(=O)(=O)NCc2ccc(N3CCN(C)CC3)cc2)cc1`, for which the “hERG current change (%, negative = inhibition) at 10uM” value was 0.364%. For `Cc1oc(-c2ccc(F)cc2F)nc1CN1C[C@@H]2C[C@@H](C1)c1cccc(=O)n1C2` the value was -74.4%; for `O=C1CCN(Cc2ccccc2)S(=O)(=O)c2ccc(C(F)(F)F)cc21`, 2.95%. On to `CC(=O)c1cccc(NC(=O)Cc2coc3cc4c(cc23)CCC4)c1`, for which the “hERG current change (%, negative = inhibition) at 10uM” value was 3.83%. On to `CCn1c(NC(=O)c2cccs2)c(-c2cccs2)c(=O)c2ccccc21`, for which the “hERG current change (%, negative = inhibition) at 10uM” value is recorded as 2.49%. As for `Cn1cccc1C(=O)OCc1cc(-c2ccco2)on1`, the “hERG current change (%, negative = inhibition) at 10uM” value amounted to 6.76%. With `CC(=O)c1ccc(OCc2cc(C(=O)N(C)Cc3ccon3)no2)cc1`, the “hERG current change (%, negative = inhibition) at 10uM” value is on record as 5.57%.

`Cc1ccccc1C(=O)NCC(=O)Nc1ccccc1C(F)(F)F`: the “hERG current change (%, negative = inhibition) at 10uM” value came to 22.7%. Take `COC(=O)c1sccc1NC(=O)CCC1CCCCC1`: the “hERG current change (%, negative = inhibition) at 10uM” value was found to be 12%. Consider `CCN(C(=O)COC(=O)COc1ccc(Cl)c(C)c1)C1CCS(=O)(=O)C1` (stereo not shown), for which the “hERG current change (%, negative = inhibition) at 10uM” value is -45.6%. `CCCCCn1c(CNC(=O)COC)nc2ccccc21`: the “hERG current change (%, negative = inhibition) at 10uM” value is reported as -10.4%.

Consider `COc1ccccc1CNC(=O)c1cc(C)nn1-c1ccccc1`, for which the “hERG current change (%, negative = inhibition) at 10uM” value was 1.87%. For the compound `N#Cc1ccc(OCC(=O)Nc2nc(-c3ccncc3)cs2)cc1`, the “hERG current change (%, negative = inhibition) at 10uM” value is on record as 1.73%.

Turning to `COc1ccccc1N1CCN(C(=O)CCc2ccc(S(=O)(=O)NCC(C)C)cc2)CC1`, the “hERG current change (%, negative = inhibition) at 10uM” value was -5.22%. As to `C=CCSc1nnc(NC(=O)CCNC(=O)c2ccco2)s1`, the “hERG current change (%, negative = inhibition) at 10uM” value is listed as -0.768%. With `O=C(Nc1ccc(F)cc1F)N1CCCN(c2ccc([N+](=O)[O-])cn2)CC1`, the “hERG current change (%, negative = inhibition) at 10uM” value is listed as -50.2%. On to `Cc1ccc(CN(C)C(=O)c2ccccc2Oc2ccccc2)o1`, for which the “hERG current change (%, negative = inhibition) at 10uM” value is given as -21.7%. As for `Cc1cc([N+](=O)[O-])ccc1N`, the “hERG current change (%, negative = inhibition) at 10uM” value is on record as -0.0947%. For `NC(=O)c1ccc(Cc2ncc(C(F)(F)F)cc2Cl)s1` the value was 6.97%; for `CCOc1ccc(S(=O)(=O)N(CC(=O)NCC2CCCO2)c2ccc(F)cc2)cc1` (stereo not shown), -23.7%; for `O=C(CCNC(=O)c1ccccc1Cl)NNC(=O)c1ccccc1O`, 9.43%.
